In PubChem BioAssay AID1454 (National Center for Advancing Translational Sciences (NCATS), 2008):
The campaign covered roughly 130,000 compounds. About 550 (0.42%) were called active. This list was built around the results that the source calls inconclusive (neither active nor inactive); the mix of calls is not that of the screen. The call rests on the fitted dose curve; in most records, active means well fitted inhibition curve with a large enough effect; inconclusive means small, poorly fitted or top-dose-only effect, or effect the other way; inactive means flat fitted curve, though single readings scatter. No potency is given beside an inconclusive call; the fits are too rough.

Assay: qHTS Assay for Inhibitors of the ERK Signaling Pathway using a Homogeneous Screening Assay; Stimulation with EGF; further: nearly all actives have a fitted effect of over 55% in size
Details: HEK293-V1b, EGF-stimulated phospho-ERK AlphaScreen
Outline: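 HEK293 cells stably expressing V1b receptor, serum-reduced (1% FBS) overnight, pretreated 30 min with compound, then stimulated 5 min with 25 nM EGF; phospho-ERK detected by AlphaScreen SureFire. AC50 from Hill fits, normalized to DMSO and EGF.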
Potency means the concentration at half of the fitted maximal effect; tags describe the fitted curve by direction and shape.

Row | Structure (SMILES) | Potency
1 | O=[N+]([O-])c1ccc(N=Nc2c(Cl)cc(O)cc2Cl)cc1 | inconclusive [inhibitor, partial curve]
2 | CSc1ccc(CN2C(=O)NC3(CCCCCCC3)C2=O)cc1 | inconclusive [inhibitor, single point]
3 | CCCn1c(-c2ccc(F)cc2)nc2c(N3CCN(C)CC3)nc(C)nc21 | inactive
4 | C/C(=N\Nc1ncc(Cl)cc1Cl)c1ccc(C#N)cc1 | inconclusive [inhibitor, single point]
5 | COc1ccc(Nc2nc(Cl)nc(N3CCN(c4ccc(OC)cc4)CC3)n2)cc1 | inconclusive [inhibitor, partial curve, poor fit]
6 | Cc1cc([N+](=O)[O-])cc([N+](=O)[O-])c1NCC(C)C | inconclusive [inhibitor, partial curve]
7 | S=c1[nH]nc(Nc2cccc3ccccc23)s1 | inactive
8 | COC(=O)CCC(C)C1CCC2C3CC[C@H]4CC(O)CC[C@@]4(C)C3CC(O)[C@]12C (stereo not given in full) | inactive
9 | Cc1cccc(N2C(=O)SC(SC(=Nc3ccccc3)Nc3ccccc3)C2=O)c1 (stereo not given) | inconclusive [inhibitor, single point]
10 | Cc1ccccc1-c1ccc(C(=O)Nc2cccc(F)c2)o1 | inconclusive [inhibitor, partial curve]
11 | COc1ccc(NC(=O)c2cc([N+](=O)[O-])ccc2O)cc1 | inactive
12 | COc1ccc(/C=C2\SC(=O)N(CCNC(=O)Cc3coc4cc(C)ccc34)C2=O)cc1OC | inconclusive [inhibitor, partial curve]
13 | CC(=O)OCCNc1cc(N2CCN(C)CC2)c2noc3c2c1C(=O)c1ccccc1-3 | inconclusive [inhibitor, partial curve, poor fit]
14 | CC(NC(=O)c1ccc(Cl)c(Cl)c1)c1ccc(-c2ccccc2)cc1 (stereo not given) | inactive
15 | CS(=O)(=O)N1CCC2(CCCN(C(=O)Nc3cccc(C#N)c3)C2)CC1 | inactive
16 | COc1cc(O)c(C(CCN2CCOCC2)c2ccc(N(C)C)cc2)c(OC)c1 (stereo not given) | inconclusive [inhibitor, single point]
17 | CCOc1ccc(N/C=C/C(=O)c2ccccc2)c([N+](=O)[O-])c1 | inconclusive [inhibitor, partial curve]
18 | O=C(OCC#CCSc1nnc(-c2ccc(Br)cc2)o1)c1cccs1 | inconclusive [activator, single point]
19 | O=C(Nc1ccc(C(O)(C(F)(F)F)C(F)(F)F)cc1)c1ccc(Cl)c([N+](=O)[O-])c1 | inconclusive [inhibitor, single point]
20 | COc1ccc(CN2C(=O)/C(=C/c3ccncc3)SC2=S)cc1 | inconclusive [inhibitor, partial curve]
21 | CC(NC(=O)Nc1ccc([N+](=O)[O-])cc1)C(c1ccccc1)N1CCOCC1 (stereo not given) | inconclusive [activator, full curve, poor fit]
22 | O=C(Nc1ccc(Cl)c(Cl)c1)OCCNC(=O)c1ccncc1 | inconclusive [inhibitor, single point]

Row | Structure (SMILES) | Potency
23 | CNc1ccc(/C=C/C(=O)c2cccc3ccccc23)cc1[N+](=O)[O-] | inconclusive [inhibitor, partial curve]
24 | COCc1cc(C)n(CC(=O)NCc2ccccc2)c(=O)c1C#N | inconclusive [inhibitor, single point]
25 | CC(=O)CCc1oc2ccc([N+](=O)[O-])cc2c1-c1ccc(C)o1 | inconclusive [inhibitor, partial curve]
26 | COc1ccc2cc[nH]c2c1 | inconclusive [inhibitor, single point]
27 | O=S(=O)(c1cccc2cccc(Cl)c12)N1CCCC1 | inconclusive [activator, full curve, poor fit]
28 | COc1ccc(C(=O)N2CCN(c3ccc([N+](=O)[O-])c(NCCc4ccc(OC)c(OC)c4)c3)CC2)cc1 | inconclusive [inhibitor, partial curve]
29 | Cc1ccc2nc3nc(NCC4CCCO4)c(C(=O)NC4CCCCC4)cc3c(=O)n2c1 (stereo not given) | inactive
30 | CC1=C(/C=C/C(C)=C/C=C/C(C)=C/C(=O)Nc2ccc(O)cc2)C(C)(C)CCC1 | inconclusive [inhibitor, single point]
31 | Nc1cc(-c2ccc(OC(F)(F)F)cc2)nn1-c1ccc(Cl)c(Cl)c1 | inconclusive [inhibitor, single point]
32 | CSc1ccc(/C=N/N2CCN(Cc3ccc(C)cc3C)CC2)cc1 | inconclusive [inhibitor, partial curve, poor fit]
33 | CC1CC(C)CN(C(=O)c2cccc3c2-c2ccccc2C3=O)C1 (stereo not given) | inactive
34 | CN(C)/C=N/c1nc2nccc(-c3cccs3)n2n1 | inconclusive [inhibitor, single point]
35 | CC(C)CN1CCC2(CC1)CCN(S(=O)(=O)c1ccccc1)CC2 | inactive
36 | Cc1cccc2[nH]c3c(N4CC=C(c5ccc(F)cc5)CC4)ncnc3c12 | inconclusive [inhibitor, single point]
37 | CCCN1C(=O)/C(=C\C=C2/Sc3ccccc3N2CCO)SC1=S | inconclusive [inhibitor, partial curve]
38 | CCOC(=O)C1(CCOC)CCN(C2C3CC4CC(C3)CC2C4)CC1 (stereo not given) | inconclusive [inhibitor, partial curve, poor fit]
39 | COc1ccc(C(CCO)NC(=O)c2cccs2)cc1OC (stereo not given) | inactive
40 | COc1cccc(NC(=S)NCc2cccs2)c1 | inactive
41 | COc1ccc(N2CCN(C(=O)c3cccc(Br)c3)CC2)c([N+](=O)[O-])c1 | inconclusive [inhibitor, single point]
42 | CCN(CC)Cc1cc(O)c(CN(CC)CC)cc1O | inconclusive [inhibitor, partial curve]
43 | NS(=O)(=O)c1ccc(CCNC(=O)c2ccc(C#CC3(O)CCCCC3)cc2)cc1 | inconclusive [inhibitor, single point]
44 | COc1ccc2[nH]c(-c3cccc(F)c3)cc(=O)c2c1 | inconclusive [inhibitor, single point]

Row | Structure (SMILES) | Potency
45 | CCOC(=O)C1=c2/c(=C/c3ccncc3)c(N)c(C(=O)OC)n2C(=O)C(c2ccncc2)S1 (stereo not given) | inconclusive [inhibitor, single point]
46 | Cc1cc(C)c2nc(NNC(=O)c3cc(-c4cccs4)nc4ccccc34)sc2c1 | inconclusive [inhibitor, single point]
47 | CCOC(=O)Cc1csc(NC(=O)c2cc(C)cc(C)c2)n1 | inconclusive [inhibitor, partial curve]
48 | COc1ccc(Nc2c([N+](=O)[O-])ccc3c2=NC2(CCCCC2)N=3)cc1 | active: 14.1 µM
49 | COc1ccccc1N(C(=O)c1ccncc1)c1nc(-c2ccc([N+](=O)[O-])cc2)cs1 | inconclusive [inhibitor, single point]
50 | COc1ccc(N=C2C(=Nc3ccc(OC)cc3)N(c3ccc(OC)cc3)C(=S)N2C(=O)c2ccc(OC)cc2)cc1 | inconclusive [inhibitor, full curve]
51 | O=[N+]([O-])c1ccc(-c2cnc(SC(c3ccccc3)c3ccccc3)[nH]2)cc1 | inconclusive [inhibitor, partial curve]
52 | CC(C)NC(=O)COc1ccccc1C#N | inconclusive [inhibitor, single point]
53 | Cc1cc(-c2nnc3n2N=C(c2ccccc2Br)CS3)n[nH]1 | inconclusive [inhibitor, partial curve]
54 | NC1=NC(c2ccc(Cl)cc2)C(C(=O)c2ccccc2)N1 (stereo not given) | inconclusive [inhibitor, single point]
55 | Cn1cccc1C(=O)N1CCC2(CCCN(c3ncccn3)C2)CC1 | inactive
56 | O=C(N/N=C/c1ccccc1OCc1ccccc1Cl)c1cccnc1 | inconclusive [inhibitor, single point]
57 | CCCCNC(=O)COC(=O)c1c2c(nc3ccccc13)/C(=C/c1cccs1)CC2 | inconclusive [activator, partial curve]
58 | C[C@@H]1CN(c2c(F)c(N)c3c(=O)c(C(=O)O)cn(C4CC4)c3c2F)C[C@H](C)N1 | inconclusive [inhibitor, single point]
59 | Cn1cccc1-c1cc(C(=O)N/N=C/c2cccc(O)c2)[nH]n1 | inconclusive [inhibitor, partial curve]
60 | COc1ccc(NC(=O)N2CCN(c3nc(-c4cccc(OC)c4)cs3)CC2)cc1 | inconclusive [inhibitor, partial curve]
61 | Nc1nc(NCCCN2CCOCC2)nc(Nc2ccccc2)c1[N+](=O)[O-] | inconclusive [inhibitor, single point]
62 | CCN(CC)S(=O)(=O)c1cc(NC(=O)c2n[nH]c(=O)c3ccccc23)ccc1C | inconclusive [inhibitor, partial curve]
63 | O=c1c(-c2ccc(F)c(F)c2)nc2cncnc2n1Cc1ccccc1Cl | inconclusive [inhibitor, partial curve]
64 | FC(F)(F)c1cc(CO[C@H]2CCCN[C@H]2c2ccccc2)cc(C(F)(F)F)c1 | inactive
65 | CC1=C(C)/C(=N\OS(=O)(=O)c2ccc(C)cc2)C=CC1=O | inconclusive [inhibitor, single point]
